Measurements published in the supplement of paper PMC11098506.
± gives the standard deviation of the averaged measurements. Some of the results follow.

B1: VDAC2; numbered along this chain (parent)
chain: MATHGQTCARPMCIPPSYADLGKAARDIFNKGFGFGLVKLDVKTKSCSGVEFSTSGSSNTDTGKVTGTLETKYKWCEYGLTFTEKWNTDNTLGTEIAIEDQICQGLKLTFDTTFSPNTGKKSGKIKSSYKRECINLGCDVDFDFAGPAIHGSAVFGYEGWLAGYQMTFDSAKSKLTRNNFAVGYRTGDFQLHTNVNDGTEFGGSIYQKVCEDLDTSVNLAWTSGTNCTRFGIAAKYQLDPTASISAKVNNSSLIGVGYTQTLRPGVKLTLSALVDGKSINAGGHKVGLALELEA
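Note: sorting relied on GFP fluorescence, which stays low in these cells lacking VDAC2 and climbs sharply once wild-type VDAC2 is expressed.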

Variants of: B1
Test: log2 fold difference of barcode abundance, GFP-BAK-high vs GFP-BAK-low sorted fraction (log2 ratio); higher = VDAC2 variant stabilises more GFP-BAK at mitochondria
Details: with BAK1 (mouse, GFP-tagged), Mcl1-/- Bax-/- Bak-/- Vdac2-/- MEF + GFP-mBAK
In the case of K174L, the log2 fold difference is reported as 0.0239 ± 1.1.
In the case of F180H, the log2 fold difference is reported as 0.1 ± 0.72.
With R177W the log2 fold difference was -0.345 ± 0.86.
F168N showed a log2 fold difference of -0.462 ± 1.3.
With S173V the log2 fold difference was 0.0865 ± 0.9.
With T167F the log2 fold difference was 0.381 ± 1.1.
With T176A the log2 fold difference was -0.166 ± 0.86.
With S170Y the log2 fold difference was 0.214 ± 0.73.
M166T showed a log2 fold difference of -0.058 ± 0.33.
K172R gave a log2 fold difference of 0.536 ± 0.98.
With F180P the log2 fold difference was -1.2 ± 1.3.
S170C showed a log2 fold difference of -0.341 ± 0.97.
Variant F168Y has a log2 fold difference of 0.38 ± 0.76.
K174Q was tested, and the log2 fold difference was 0.183 ± 0.43.
Variant R177I has a log2 fold difference of -0.173 ± 0.86.
L175W was tested, and the log2 fold difference was -0.123 ± 0.99.
Work on M166A yielded a log2 fold difference of -0.0422 ± 1.3.
R177M was tested, and the log2 fold difference was -0.0305 ± 0.47.
Variant F180R has a log2 fold difference of -0.757 ± 0.97.
For K174N, the log2 fold difference was 0.28 ± 0.89.
Variant T167M has a log2 fold difference of -0.675 ± 0.74.
With S173I the log2 fold difference was 0.0851 ± 0.98.
Work on L175P yielded a log2 fold difference of -0.959 ± 0.7.
Work on S173C yielded a log2 fold difference of -0.537 ± 0.82.
In the case of T167S, the log2 fold difference is reported as 0.157 ± 0.92.
K174W gave a log2 fold difference of 0.165 ± 0.93.
D169T gave a log2 fold difference of -1.08 ± 1.
Variant S170F has a log2 fold difference of 0.812 ± 0.92.
In the case of F168C, the log2 fold difference is reported as -0.838 ± 1.1.
K174T gave a log2 fold difference of -0.219 ± 0.87.
In the case of N178G, the log2 fold difference is reported as 0.494 ± 0.87.
A171N gave a log2 fold difference of -0.514 ± 1.1.
In the case of S170M, the log2 fold difference is reported as 0.136.
With Q165C the log2 fold difference was 0.225 ± 1.5.
In the case of D169V, the log2 fold difference is reported as -0.67 ± 1.3.
A171Q showed a log2 fold difference of -0.529 ± 1.
R177S showed a log2 fold difference of -0.209 ± 0.96.
A171T was tested, and the log2 fold difference was 0.454 ± 0.91.
For D169K, the log2 fold difference was -0.698 ± 0.87.
L175Y gave a log2 fold difference of 0.0732 ± 1.4.
Variant S173F has a log2 fold difference of 0.843 ± 1.3.
R177T was tested, and the log2 fold difference was 0.147 ± 0.79.
S173N showed a log2 fold difference of 0.536 ± 0.82.
Variant Q165T has a log2 fold difference of 0.613 ± 0.92.
K174I showed a log2 fold difference of 0.852 ± 1.
N179K gave a log2 fold difference of -0.649 ± 0.79.
T176M was tested, and the log2 fold difference was -0.494 ± 0.73.
T167I was tested, and the log2 fold difference was 0.492 ± 0.69.
For L175E, the log2 fold difference was -0.724 ± 1.2.
N179S gave a log2 fold difference of 0.604 ± 0.93.
L175G was tested, and the log2 fold difference was -0.433 ± 1.1.
With N178E the log2 fold difference was 0.44 ± 1.1.
Variant N178K has a log2 fold difference of 0.222 ± 1.
Work on M166C yielded a log2 fold difference of 0.727 ± 0.93.
A171F was tested, and the log2 fold difference was 0.829 ± 1.
Variant M166S has a log2 fold difference of 0.0933 ± 0.74.
Work on D169W yielded a log2 fold difference of -0.337 ± 0.68.
In the case of Q165H, the log2 fold difference is reported as 0.135 ± 0.9.
In the case of D169L, the log2 fold difference is reported as -0.24 ± 0.9.
Work on A171S yielded a log2 fold difference of -0.589 ± 0.81.
Variant M166L has a log2 fold difference of -0.137 ± 0.7.
Work on S173E yielded a log2 fold difference of 2.03 ± 1.
For F168L, the log2 fold difference was -0.433 ± 0.9.
Work on T167V yielded a log2 fold difference of -0.201 ± 1.3.
With Q165S the log2 fold difference was 0.315 ± 0.94.
Work on T167K yielded a log2 fold difference of -0.673 ± 1.6.
For L175M, the log2 fold difference was 1.05 ± 1.6.
For N179H, the log2 fold difference was 0.0378 ± 1.
For N179L, the log2 fold difference was -0.0224 ± 1.1.
Variant S170V has a log2 fold difference of -0.895 ± 1.
Work on L175Q yielded a log2 fold difference of -0.225 ± 0.66.
Work on N178H yielded a log2 fold difference of -0.0581 ± 0.64.
With D169Y the log2 fold difference was -0.525 ± 0.68.
With Q165E the log2 fold difference was 0.573 ± 1.1.
T176Y gave a log2 fold difference of -0.154 ± 0.91.
N179A showed a log2 fold difference of 0.364 ± 0.97.
N179Q was tested, and the log2 fold difference was 0.426 ± 0.61.
Variant S170W has a log2 fold difference of -0.594 ± 0.8.
With T167H the log2 fold difference was -0.0254 ± 0.79.
S170T gave a log2 fold difference of 0.139 ± 0.76.
Work on S170E yielded a log2 fold difference of 0.876 ± 0.56.
N179G gave a log2 fold difference of 0.168 ± 0.82.
With T176Q the log2 fold difference was 0.361 ± 1.4.
Work on L175I yielded a log2 fold difference of -0.0483 ± 0.65.
For N178M, the log2 fold difference was 0.0996 ± 0.73.
For unchanged, the log2 fold difference was 0.0191 ± 1.
Work on Q165G yielded a log2 fold difference of 0.428 ± 0.71.
A171L was tested, and the log2 fold difference was 1.14 ± 0.77.
For F180D, the log2 fold difference was -1.05 ± 0.54.
R177L showed a log2 fold difference of -0.0484 ± 0.91.
F168G gave a log2 fold difference of -0.784 ± 0.78.
M166D showed a log2 fold difference of -0.284 ± 0.97.
For L175V, the log2 fold difference was 0.412 ± 0.84.
Work on S173D yielded a log2 fold difference of 0.492 ± 1.4.
For T167W, the log2 fold difference was -0.703 ± 0.47.
Variant F180K has a log2 fold difference of -1.02 ± 0.86.
With L175K the log2 fold difference was -1.37 ± 0.53.
K172Q was tested, and the log2 fold difference was -0.145 ± 1.4.
In the case of A171K, the log2 fold difference is reported as -0.604 ± 0.85.
K174E gave a log2 fold difference of 0.783 ± 1.1.
T176I was tested, and the log2 fold difference was -0.168 ± 1.1.
N178I showed a log2 fold difference of 0.729 ± 0.74.
In the case of T167C, the log2 fold difference is reported as 0.94 ± 0.38.
Work on D169G yielded a log2 fold difference of -0.778 ± 0.72.
A171D was tested, and the log2 fold difference was 0.69 ± 1.
Variant A171G has a log2 fold difference of -0.547 ± 1.
In the case of Q165W, the log2 fold difference is reported as 0.201 ± 0.72.
With F168Q the log2 fold difference was -0.714 ± 0.61.
Variant T176F has a log2 fold difference of -0.422 ± 0.76.
For K174G, the log2 fold difference was 0.223 ± 0.92.
For K172S, the log2 fold difference was -0.302 ± 1.
For Q165K, the log2 fold difference was 0.357 ± 1.3.
N178D gave a log2 fold difference of -0.107 ± 0.6.
Variant F180W has a log2 fold difference of 0.395 ± 0.46.
S170A was tested, and the log2 fold difference was 0.671 ± 1.1.
Work on Q165L yielded a log2 fold difference of 0.22 ± 1.2.
With N178R the log2 fold difference was 0.424 ± 0.97.
Work on A171I yielded a log2 fold difference of 1.22 ± 0.5.
T167Y showed a log2 fold difference of -0.858 ± 0.097.
In the case of R177V, the log2 fold difference is reported as 0.205 ± 1.
Variant M166V has a log2 fold difference of 0.766 ± 1.
In the case of M166F, the log2 fold difference is reported as 0.244 ± 0.41.
F168M was tested, and the log2 fold difference was -0.00625.
Work on F168R yielded a log2 fold difference of -0.344 ± 1.2.
T167E gave a log2 fold difference of 0.785 ± 0.23.
S170N was tested, and the log2 fold difference was 0.00725.
K172C showed a log2 fold difference of 0.0231 ± 1.1.
